# In PubChem BioAssay (Tox21):
# Entries after “also recorded” stand apart in the source; their conditions may differ. Inconclusive results are not listed. Unless noted, the call rests on the fitted dose curve; in most records, active means well fitted curve in the direction sought with a large enough effect in the repeat runs; inconclusive means weak or mixed curves; inactive means no such curve, though single readings can be large; an effect the other way counts as inactive or inconclusive. Some entries of the source have several records that differ or are many. This list holds those alone. An entry can have further records. The values listed for one entry repeat one measurement across runs, samples, wells, individuals or studies. What stands in brackets tells the records apart. Letters hold for one entry only. A structure can be active in one record and inactive in another.
# Key:
# [1] = qHTS assay to identify small molecule antagonists of the thyroid receptor (TR) signaling pathway (AID 743065); further: nearly all actives have a fitted effect of over 55% in size
# Procedure, shortened: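 GH3.TRE-Luc rat pituitary cells (two TREs driving luciferase) were dosed with compound, then stimulated with 1 nM T3 (final) for 23.5 h at 37 C. ONE-Glo luminescence was the read-out, with CellTiter-Fluor fluorescence as the cytotoxicity counter-screen.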
# [2] = A CellTox Green Cytotoxicity Assay to monitor cytotoxicity in HEK293 cells - 24 hour (AID 1224875); further: nearly all actives have a fitted effect of over 45% in size; on activity change: series mostly up to about 77 µM
# Procedure, shortened: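 Fluorescence from a DNA-binding dye excluded by viable cells was measured repeatedly in the same HEK293 wells (600 cells/well) during continuous compound exposure at 37 C. Each assay gives one read point: 0, 8, 16, 24, 32 or 40 h.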
# [3] = qHTS assay for small molecules that induce genotoxicity in human embryonic kidney cells expressing luciferase-tagged ATAD5 - cell viability (AID 651634; calls by dose curve; further: nearly all actives have a fitted effect of over 25% in size)
# Procedure, shortened: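 Cytotoxicity counter-readout: after 15.5 hr compound treatment at 37C, live-cell protease activity in ATAD5-luciferase HEK293T cells measured by CellTiter-Fluor fluorescence, 30 min development at 37C.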
# [4] = qHTS assay to identify small molecule antagonists of the TGF-beta/Smad signaling pathway - cell viability counter screen (AID 1346824); further: nearly all actives have a fitted effect of over 50% in size
# Procedure, shortened: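 SBE-bla HEK 293T cells, incubated overnight, then compound plus 0.25 ng/mL TGF-beta1 (stock added) for 5 hr at 37 C. Viability was read in the same wells by CellTiter-Glo luminescence after 30 min at room temperature.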
# [5] = qHTS assay to identify small molecule agonists of the constitutive androstane receptor (CAR) signaling pathway - cell viability counter screen (AID 1224836); further: nearly all actives have a fitted effect of over 45% in size; on viability change, negative = cytotoxic: series mostly up to about 92 µM
# Procedure, shortened: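 Compound titrations (15 concentrations) went onto HepG2-CYP2B6-hCAR cells 4 h after seeding, alongside PK11195 at a final 0.75 uM; a 23 h, 37 C/5% CO2 incubation preceded CellTiter-Fluor viability measurement.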
# [6] = qHTS assay to identify small molecule antagonists of the constitutive androstane receptor (CAR) signaling pathway - cell viability counter screen (AID 1224837); further: nearly all actives have a fitted effect of over 45% in size; on activity change, negative = cytotoxicity: series mostly up to about 92 µM
# Procedure, shortened: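 Cytotoxicity counter-screen: CellTiter-Fluor fluorescence after 23 h compound exposure (15-point qHTS) in double-stable HepG2-CYP2B6-hCAR cells, with 50 nM CITCO added.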
# [7] = qHTS assay to identify small molecule antagonists of the estrogen receptor alpha (ER-alpha) signaling pathway using the BG1 cell line in the presence of 0.1 nM 17-beta-estradiol - cell viability counter screen (AID 1259241); further: nearly all actives have a fitted effect of over 40% in size
# Procedure, shortened: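 CellTiter-Fluor read (30 min, 37C) on ER-alpha/ERE-luc VM7Luc4E2 cells; 22 hr compound treatment; agonist 0.1 nM E2 final; same-well multiplex.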
# [8] = qHTS assay to identify small molecule antagonists of the progesterone receptor (PR) signaling pathway - cell viability counter screen (AID 1346798); further: nearly all actives have a fitted effect of over 50% in size; on activity change, negative = cytotoxicity: series mostly up to about 92 µM
# Procedure, shortened: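 Measures cytotoxicity in parallel with the PR antagonist reporter read: HEK293T PR-UAS-bla cells get compound and R5020 for 16 hr, and remaining viable cells are quantified by CellTiter-Glo luminescence.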
# On the % scale 0 is the no-effect control and ±100 the full control effect; potency means the concentration at half of the fitted maximal effect.
smiles,measurement,setting,value
CCc1ccc(CCOc2ccc(CC3SC(=O)NC3=O)cc2)nc1 (stereo not given),Potency,[1],inactive [sample A] and active: 61.1 µM [sample B]
CN(C)CCOCCN(C)C,Potency,[2],inactive [sample A] and active: 43.6 µM [sample B]
CCCSc1ccc2nc(NC(=O)OC)[nH]c2c1,Potency,[3],inactive [sample A] and active: 486 nM [sample B]
CCCCCCCCCCCCCCCO,Potency,[4],active: 24.8 µM [sample A] and inactive [sample B]
COCCCOc1ccnc(CS(=O)c2nc3ccccc3[nH]2)c1C (stereo not given),Potency,[3],inactive [sample A] and active: 30.5 µM [sample B]
C=C(C)C(=O)O[C@H]1C[C@@H]2CC[C@@]1(C)C2(C)C,Potency,[5],active: 8.58 µM [sample A] and inactive [sample B]
same,Potency,[6],active: 5.42 µM [sample A] and inactive [sample B]
same,Potency,[7],active: 9.63 µM [sample A] and inactive [sample B]
same,Potency,[8],active: 4.3 µM [sample A] and inactive [sample B]
CCN(CC)CCCC(C)Nc1ccnc2cc(Cl)ccc12 (stereo not given),"activity change, negative = cytotoxicity",[6],inactive: -17.1% [at 8.39 µM] [sample A] and inactive: -21.1% [at 19 µM] [sample B]
same,activity change,[2],"inactive: -7.89% [at 6.97 µM, stronger effect = higher value] [sample A]; also recorded: inactive: 2.16% [at 15.8 µM, stronger effect = higher value] [sample B]"
same,"activity change, negative = cytotoxicity",[7],inactive: -14.6% [at 8.39 µM] [sample A] and inactive: -20.6% [at 19 µM] [sample B]
same,"viability change, negative = cytotoxic",[4],inactive: -12.9% [at 6.97 µM] [sample A] and inactive: -0.916% [at 15.8 µM] [sample B]
CCCCCCCCCCCCOCCO,Potency,[8],active: 54.5 µM [sample A] and inactive [sample B]
CN(C)CCC(c1ccc(Cl)cc1)c1ccccn1 (stereo not given),Potency,[6],active: 54.6 µM [sample A] and inactive [sample B]
